Source: PubChem BioAssay (Tox21)
Several values for one entry are separate records, joined by “and”; a condition that tells them apart may be missing. Equal values may be shown once. This list was built around the results that the source calls inconclusive (neither active nor inactive); the mix of calls is not that of the screen. For part of these data: A potency beside an inconclusive call is a rough fit, not a confirmed value. Where a structure was tested more than once in an assay, its records may differ in their call. Activity calls are given as the source filed them. Unless noted, calls come from the whole dose curve; as a rule, active = well fitted curve in the direction sought with a large enough effect in the repeat runs; inconclusive = weak or mixed curves; inactive = no such curve, though single readings can be large; an effect the other way counts as inactive or inconclusive.

Columns and labels:
[1] = qHTS assay to identify small molecule agonists of the endoplasmic reticulum stress response signaling pathway - cell viability counter screen (AID 1159517; calls by dose curve; note: nearly all actives have a fitted effect of over 50% in size)
In short: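 ESRE-bla HeLa cells (1,500/well) were plated overnight at 37 C and exposed to compounds for 5 hr. After the 2 hr beta-lactamase substrate read, CellTiter-Glo went into the same wells, and luminescence was read after 30 min at room temperature.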

[2] = qHTS assay to identify small molecule antagonists of the retinoid-related orphan receptor gamma (ROR-gamma) signaling pathway - cell viability counter screen (AID 1159520); note: nearly all actives have a fitted effect of over 50% in size
In short: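 Cytotoxicity was read from cellular ATP (CellTiter-Glo luminescence) after 16 hr at 37 C with 1 uM doxycycline induction. The inducer was added 2 hr after compound transfer to Tet-on ROR gamma CHO cells.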

[3] = biological target: Nuclear receptor ROR-gamma (Homo sapiens) (UniProt P51449); assay: qHTS assay to identify small molecule antagonists of the retinoid-related orphan receptor gamma (ROR-gamma) signaling pathway (AID 1159521; note: nearly all actives have a fitted effect of over 50% in size)
In short: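 Antagonist read-out: drop in luminescence (ONE-Glo) from an RORE-LUC reporter in CHO cells with doxycycline-inducible ROR-gamma; 2 hr compound pretreatment, 1 uM doxycycline, 16 hr incubation at 37 C.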

[4] = qHTS assay to identify small molecule agonists of the AP-1 signaling pathway (AID 1159526; calls by dose curve); details: ME-180 (cervical carcinoma) AP-1-bla reporter, beta-lactamase FRET ratio, 5 h; activation: at 76.8 µM (top of the series) unless noted
[5] = biological target: Retinoic acid receptor RXR-alpha (Homo sapiens) (UniProt P19793); assay: qHTS assay to identify small molecule agonists of the RXR signaling pathway (AID 1159527; calls by dose curve; note: nearly all actives have a fitted effect of over 35% in size; for activation: % is set by controls: 0 for no effect and ±100 for the full control effect); details: HEK293T RXRa-UAS-bla, beta-lactamase ratio, 16 h; activation: at 76.8 µM (top of the series) unless noted
UniProt P19793, sequence (P19793 whole entry, looked up): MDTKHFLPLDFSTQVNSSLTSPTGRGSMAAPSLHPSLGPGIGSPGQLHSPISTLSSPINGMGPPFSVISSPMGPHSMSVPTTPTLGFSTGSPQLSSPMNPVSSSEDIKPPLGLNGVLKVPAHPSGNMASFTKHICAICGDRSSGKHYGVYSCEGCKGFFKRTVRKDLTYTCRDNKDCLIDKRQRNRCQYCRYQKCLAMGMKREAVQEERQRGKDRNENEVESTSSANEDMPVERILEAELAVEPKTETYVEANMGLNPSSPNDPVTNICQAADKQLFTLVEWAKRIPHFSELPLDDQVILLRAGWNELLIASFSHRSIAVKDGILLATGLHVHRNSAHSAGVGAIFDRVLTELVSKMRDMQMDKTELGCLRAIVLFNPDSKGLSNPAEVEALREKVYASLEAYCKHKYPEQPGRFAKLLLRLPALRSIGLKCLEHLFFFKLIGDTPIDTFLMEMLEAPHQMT
In short: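 Agonist-mode beta-lactamase reporter assay: HEK 293T RXR-alpha-UAS-bla cells treated 16 hr at 37 C with compounds, 9-cis retinoic acid as positive control. LiveBLAzer FRET substrate, 405 nm excitation, 460/530 nm emission.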

[6] = qHTS assay to identify small molecule agonists of the RXR signaling pathway - cell viability counter screen (AID 1159529); note: nearly all actives have a fitted effect of over 50% in size
In short: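 CellTiter-Glo luminescence gave viability in the wells also read for beta-lactamase. Cells (RXR-alpha-UAS-bla HEK 293T, 2% charcoal-stripped FBS medium) had 5 hr plating, then 16 hr compound exposure at 37 C; tetraoctyl ammonium bromide served as positive control.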

[7] = qHTS assay to identify small molecule antagonists of the estrogen related receptor (ERR) signaling pathway from Tox21 library - cell viability counter screen (AID 1224834); note: nearly all actives have a fitted effect of over 30% in size
In short: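 Multiplexed viability counter screen in ERR cells: 17.5 h compound exposure at 37 C, CellTiter-Fluor added, 30 min at 37 C/5% CO2, fluorescence read.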

[8] = qHTS assay to identify small molecule antagonists of the retinoid acid receptor (RAR) signaling pathway - cell viability counter screen (AID 1159551); note: nearly all actives have a fitted effect of over 35% in size
In short: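 C3RL4 RARE-luciferase line; cpds + retinol 1 uM final, 6 h, 37 C/5% CO2; CellTiter-Glo ATP luminescence, 30 min RT.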

[9] = qHTS assay to identify small molecule agonists of the retinoic acid receptor (RAR) signaling pathway (AID 1159553); details: C3RL4 RARE luciferase reporter, agonist, 6 h; activation: at 73.3 µM (top of the series) unless noted
In short: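 RARE-luc C3RL4 cells; overnight attachment 37 C/5% CO2; compound (DMSO) 6 hr; luciferase reagent, 30 min RT; luminescence read-out.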

[10] = biological target: Luciferin 4-monooxygenase (Photinus pyralis) (UniProt P08659); assay: qHTS assay to identify small molecule inhibitors of firefly luciferase (AID 1224835); note: nearly all actives have a fitted effect of over 25% in size
UniProt P08659, sequence (P08659 whole entry, looked up): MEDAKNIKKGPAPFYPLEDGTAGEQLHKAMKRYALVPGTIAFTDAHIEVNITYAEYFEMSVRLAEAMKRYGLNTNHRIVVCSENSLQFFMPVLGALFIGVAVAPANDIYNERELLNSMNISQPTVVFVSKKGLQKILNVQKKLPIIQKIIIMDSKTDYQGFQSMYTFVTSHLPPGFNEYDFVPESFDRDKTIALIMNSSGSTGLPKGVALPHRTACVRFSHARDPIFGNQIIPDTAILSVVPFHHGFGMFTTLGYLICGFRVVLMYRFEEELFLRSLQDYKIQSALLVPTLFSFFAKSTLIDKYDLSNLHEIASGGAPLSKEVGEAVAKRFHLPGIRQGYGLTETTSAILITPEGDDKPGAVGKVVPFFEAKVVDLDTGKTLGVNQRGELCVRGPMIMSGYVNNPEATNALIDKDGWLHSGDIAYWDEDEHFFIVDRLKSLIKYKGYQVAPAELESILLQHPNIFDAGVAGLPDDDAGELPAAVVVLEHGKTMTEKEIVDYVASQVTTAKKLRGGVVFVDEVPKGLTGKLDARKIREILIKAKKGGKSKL
In short: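 Inhibition of purified Photinus luciferase is measured by luminescence. Substrate levels (D-luciferin, ATP) sit at their KM values. Each compound is tested in a concentration series.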

[11] = qHTS assay to identify small molecule agonists of the constitutive androstane receptor (CAR) signaling pathway - cell viability counter screen (AID 1224836); note: nearly all actives have a fitted effect of over 45% in size
In short: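 Cell viability multiplexed with the CAR agonist screen: CellTiter-Fluor fluorescence after 23 hr at 37 C. HepG2-CYP2B6-hCAR cells got compounds at 15 concentrations with PK11195 at 0.75 uM final.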

[12] = qHTS assay to identify small molecule antagonists of the constitutive androstane receptor (CAR) signaling pathway - cell viability counter screen (AID 1224837); note: nearly all actives have a fitted effect of over 45% in size
In short: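 Read-out: CellTiter-Fluor fluorescence after 23 hr at 37 C/5% CO2. Cells: HepG2 double-stable for hCAR and CYP2B6-2.2kb. Compounds tested at 15 concentrations in the presence of CITCO, final concentration 50 nM.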

[13] = qHTS assay to identify small molecule agonists of the AP-1 signaling pathway - cell viability counter screen (AID 1159525; calls by dose curve; note: nearly all actives have a fitted effect of over 55% in size)
In short: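 Intracellular ATP by Cell Titer Glo luminescence (30 min, RT) in the same ME-180 AP-1-bla wells after the 5 h compound exposure at 37 °C. Normalised to tetra n-octyl ammonium bromide and DMSO controls.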

[14] = qHTS assay to identify small molecule antagonists of the retinoic acid receptor (RAR) signaling pathway (AID 1159552; note: nearly all actives have a fitted effect of over 50% in size)
In short: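 Luminescent RARE reporter read-out in C3RL4 cells: 6 hr co-treatment at 37 C of test compounds with retinol at 1 uM final. Cells plated overnight beforehand; luciferase reagent incubated 30 min at room temperature before reading.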
Potency is the fitted concentration of half-maximal effect; tags give direction and shape of the fitted curve or compound fluorescence and quenching.

Row | Compound | Potency [1] | Potency [2] | Potency [3] | Potency [4] | Potency [5] | Potency [6] | Potency [7] | activation [5] | Potency [8] | Potency [9] | Potency [10] | Potency [11] | Potency [12] | Potency [13] | Potency [14]
1 | CCCCCCC[CH2][Sn]([Cl])([Cl])[CH2]CCCCCCC | inactive | inconclusive: 68.5 µM [cytotoxic, single point] | inconclusive: 43.2 µM [inhibitor, partial curve, poor fit] | inconclusive: 24.5 µM [falling, full curve] | inconclusive: 43.6 µM [rising, partial curve] | inconclusive: 19.5 µM [rising, partial curve, poor fit] | inconclusive: 68.5 µM [cytotoxic, partial curve, poor fit] | – | – | – | – | – | – | – | –
2 | O=C(NC(O)C(Cl)(Cl)Cl)NC(O)C(Cl)(Cl)Cl (stereo not drawn) | inactive | – | – | – | – | – | – | – | – | – | – | – | – | – | –
3 | O=[N+]([O-])c1ccc(Nc2ccccc2)cc1 | active: 54.9 µM | inconclusive: 48.9 µM [cytotoxic, partial curve] | inconclusive: 69.1 µM [inhibitor, single point] and inconclusive: 77 µM [inhibitor, single point] | – | inconclusive: 22 µM [rising, partial curve] | inconclusive: 49.4 µM [cytotoxic, single point] and inconclusive: 195 nM [cytotoxic, single point] | – | inconclusive: -28.7% | inconclusive: 69.1 µM [cytotoxic, partial curve, poor fit] | inconclusive: 77 µM [inhibitor, partial curve] | inconclusive: 71 µM [inhibitor, partial curve] | active: 48.9 µM and inconclusive: 61.1 µM [cytotoxic, partial curve, poor fit] | active: 30.9 µM and inconclusive: 61.1 µM [cytotoxic, partial curve] | – | –
4 | CC(C)c1ccc(OP(=O)(Oc2ccc(C(C)C)cc2)Oc2ccc(C(C)C)cc2)cc1 | inconclusive: 24.7 µM [cytotoxic] and inconclusive: 15.5 µM [cytotoxic, full curve, poor fit] and active: 9.77 µM | inconclusive: 69.1 µM [cytotoxic, partial curve, poor fit] and inconclusive: 68.6 µM [cytotoxic, partial curve, poor fit] | inconclusive: 54.4 µM [inhibitor, partial curve, poor fit] | – | inconclusive: 4.93 µM [inhibitor, partial curve] and inconclusive: 4.37 µM [inhibitor, partial curve] and inconclusive: 4.89 µM [inhibitor, partial curve] | active: 19.6 µM and active: 19.5 µM and inconclusive: 21.9 µM [cytotoxic] | inconclusive: 48.9 µM [cytotoxic, partial curve] and inconclusive: 34.4 µM [cytotoxic, partial curve] and inconclusive: 17.2 µM [cytotoxic, full curve] | – | – | – | – | – | inconclusive: 69.1 µM [cytotoxic, partial curve, poor fit] | inconclusive: 7.77 µM [cytotoxic, full curve] | active: 54.9 µM
5 | CCOP(=S)(OCC)Oc1nc(Cl)c(Cl)cc1Cl | inconclusive: 5.51 µM [cytotoxic, partial curve, poor fit] | inconclusive: 30.7 µM [cytotoxic, partial curve] | active: 27.4 µM | – | – | – | inconclusive: 54.6 µM [cytotoxic, partial curve, poor fit] | – | active: 61.3 µM | – | – | – | – | inconclusive: 55.1 µM [cytotoxic, single point] | –
6 | CCc1nn(C)c(C(=O)NCc2ccc(C(C)(C)C)cc2)c1Cl | inconclusive: 54.9 µM [cytotoxic, partial curve, poor fit] | active: 21.7 µM | active: 0.545 µM | inconclusive: 54.9 µM [cytotoxic] | inconclusive: 54.9 µM [falling, partial curve, poor fit] | active: 43.6 µM | active: 30.6 µM | – | inconclusive: 24.3 µM [cytotoxic, partial curve] | inconclusive: 77 µM [inhibitor, partial curve, poor fit] | – | inconclusive: 486 nM [cytotoxic, full curve] | – | active: 54.9 µM | –
7 | ClC1=C(Cl)[C@]2(Cl)[C@H]3[C@H]([C@@H]4C=C[C@H]3C4)[C@@]1(Cl)C2(Cl)Cl | active: 21.8 µM and active: 49 µM | active: 61 µM and inconclusive: 68.6 µM [cytotoxic, single point] | inconclusive: 68.6 µM [inhibitor, single point] | inconclusive: 54.9 µM [single point] and inconclusive: 38.9 µM [cytotoxic, partial curve] | inactive and inconclusive: 30.9 µM [inhibitor, partial curve] | inconclusive: 61.6 µM [cytotoxic, single point] | inconclusive: 68.6 µM [cytotoxic, single point] | – | inconclusive: 48.6 µM [cytotoxic, partial curve, poor fit] | – | – | – | – | inconclusive: 54.9 µM [cytotoxic, single point] and active: 38.9 µM | –
8 | N#CSCSC#N | inconclusive: 12.6 µM [cytotoxic, partial curve, poor fit] and inconclusive: 54.4 µM [cytotoxic, single point] | active: 15.7 µM and active: 4.28 µM | inconclusive: 12.5 µM [inhibitor, full curve, poor fit] and active: 12.1 µM | inconclusive: 22.4 µM [falling, full curve] and inconclusive: 21.7 µM [falling, full curve] | inconclusive: 1.12 µM [inhibitor, full curve, poor fit] and inconclusive: 4.85 µM [activator, single point] | active: 17.8 µM and active: 17.2 µM | active: 62.5 µM and active: 60.5 µM | – | active: 27.9 µM and active: 30.3 µM | inconclusive: 12.5 µM [inhibitor, full curve] and inconclusive: 30.3 µM [inhibitor, full curve] | – | – | – | – | active: 24.9 µM
9 | Oc1ccc(C2(c3ccc(O)cc3)c3ccccc3-c3ccccc32)cc1 | inconclusive: 54.9 µM [cytotoxic, single point] | inconclusive: 68.6 µM [cytotoxic, single point] | inconclusive: 68.6 µM [inhibitor] | inconclusive: 54.9 µM [falling, partial curve] | inconclusive: 54.9 µM [cytotoxic, single point] | active: 38.9 µM | active: 68.6 µM | – | inconclusive: 77 µM [cytotoxic, single point] | – | – | inconclusive: 68600 nM [cytotoxic, single point] | – | inconclusive: 17.4 µM [cytotoxic, partial curve, poor fit] | –
10 | O=[N+]([O-])c1cc(C(F)(F)F)c(Cl)c([N+](=O)[O-])c1Cl | active: 12.3 µM | active: 27.3 µM | active: 6.11 µM | inconclusive: 15.5 µM [cytotoxic] | inconclusive: 12.3 µM [rising, partial curve] | active: 17.4 µM | – | – | active: 48.6 µM | – | – | – | active: 27.3 µM | inconclusive: 24.5 µM [cytotoxic] | –
11 | ClC1=C(Cl)C2(Cl)C(CBr)CC1(Cl)C2(Cl)Cl (stereo not drawn) | active: 54.9 µM and inactive | inconclusive: 27.3 µM [cytotoxic, partial curve, poor fit] | inconclusive: 7.7 µM [inhibitor, partial curve, poor fit] and inactive | inconclusive: 49 µM [partial curve] and inconclusive: 23.9 µM [activator] | inconclusive: 12.3 µM [inhibitor, full curve] | inconclusive: 19.5 µM [cytotoxic, full curve] | inconclusive: 77 µM [cytotoxic, single point] | – | – | – | – | – | – | inconclusive: 54.9 µM [cytotoxic, single point] | active: 54.5 µM
12 | O=C(O)c1ccc2[nH]cc(CCCCN3CC=C(c4ccccc4)CC3)c2c1 | inactive | – | – | – | – | – | – | – | – | – | – | – | – | – | –
